Data taken from US9005633B2 (priority 2009, dated 2015).

System: DENV-1 West Pac 74
Conditions: 10 ug/ml psoralen compound, Centri-sep purified
Experimental: 5 ml aliquots of DENV-1 viral culture supernatant at a concentration of 3.4×10^5 plaque-forming units (PFU)/ml were transferred into 60×15 mm Petri dishes. Four test groups of dishes were made. A single psoralen compound (either AMT, 8-MOP, or TMP) was added to each dish in the first three groups, while the fourth group had no psoralen added and served as control. Dishes were exposed to UVA radiation at 365 nm (UVAB-18 lamp, UltraLum, Inc., Claremont, Calif.) for 0, 1, 5, 10, or 20 minutes at an intensity of 200 or 1000 μW/cm^2. Specimens were then re-titered in BHK cell culture to assess for plaque formation.

[1] = UV-A 200 uW/cm^2, UV time 0 min
[2] = UV-A 200 uW/cm^2, UV time 1 min
[3] = UV-A 200 uW/cm^2, UV time 5 min
[4] = UV-A 200 uW/cm^2, UV time 10 min
[5] = UV-A 200 uW/cm^2, UV time 20 min
[6] = UV-A 1000 uW/cm^2, UV time 0 min
[7] = UV-A 1000 uW/cm^2, UV time 1 min
[8] = UV-A 1000 uW/cm^2, UV time 5 min
[9] = UV-A 1000 uW/cm^2, UV time 10 min
[10] = UV-A 1000 uW/cm^2, UV time 20 min

SMILES | DENV-1 titer (PFU) after psoralen and UV-A [1] | DENV-1 titer (PFU) after psoralen and UV-A [2] | DENV-1 titer (PFU) after psoralen and UV-A [3] | DENV-1 titer (PFU) after psoralen and UV-A [4] | DENV-1 titer (PFU) after psoralen and UV-A [5] | DENV-1 titer (PFU) after psoralen and UV-A [6] | DENV-1 titer (PFU) after psoralen and UV-A [7] | DENV-1 titer (PFU) after psoralen and UV-A [8] | DENV-1 titer (PFU) after psoralen and UV-A [9] | DENV-1 titer (PFU) after psoralen and UV-A [10]
COc1c2occc2cc2ccc(=O)oc12 [8-MOP, 8-Methoxypsoralen] | 6.14 × 10^5 PFU/ml | 4.35 × 10^5 PFU/ml | 2.94 × 10^5 PFU/ml | 2.18 × 10^5 PFU/ml | 1.66 × 10^5 PFU/ml | 6.14 × 10^5 PFU/ml | 3.46 × 10^5 PFU/ml | 1.09 × 10^5 PFU/ml | 5.12 × 10^4 PFU/ml | 6.00 × 10^3 PFU/ml
Cc1oc2c(C)c3oc(=O)cc(C)c3cc2c1CN.Cl [AMT, 4′-Aminomethyltrioxsalen hydrochloride] | 1.92 × 10^5 PFU/ml | 4.32 × 10^4 PFU/ml | 1.70 × 10^2 PFU/ml | – | 0 PFU/ml | 1.92 × 10^5 PFU/ml | 90 PFU/ml | – | 0 PFU/ml | 0 PFU/ml
Cc1cc2cc3c(C)cc(=O)oc3c(C)c2o1 [TMP, 4,5′,8-Trimethylpsoralen] | 4.86 × 10^5 PFU/ml | 3.33 × 10^5 PFU/ml | 1.47 × 10^5 PFU/ml | 8.64 × 10^4 PFU/ml | 2.24 × 10^4 PFU/ml | 4.86 × 10^5 PFU/ml | 1.54 × 10^5 PFU/ml | 4.60 × 10^3 PFU/ml | 40 PFU/ml | 0 PFU/ml

Where two headings read alike, the source gives them in different places.
